# Reference: PubChem BioAssay (NCATS)
# “And” between values parts separate entries of the source, which are not always exact repeats. Equal entries are not always repeated. The inconclusive results got no clear call from the source; some entries with a clear call stand among them for comparison. Where the call is inconclusive, the potency comes from a doubtful curve fit. The source made the active and inactive calls. The call rests on the fitted dose curve; in most records, active means well fitted cell-killing curve with a large enough effect; inconclusive means small, poorly fitted or top-dose-only effect, or effect the other way; inactive means flat fitted curve, though single readings scatter.
# Test system: OV90
# Assay: Primary qHTS to identify gynecologic anti-cancer compounds using libraries of approved drugs and bioactive compounds (AID 1345084); further: nearly all actives have a fitted effect of over 55% in size
# Conditions: Gynecologic cancer cell panel viability, ATPlite luminescence, 48 h; series mostly up to 57.5 µM
# Source text: National Center for Advancing Translational Sciences [NCATS] Assay Overview: Chemotherapeutic drug responses vary from cancer to cancer and from patient to patient. These variations could be caused by a number of factors including patient genomic background, tumor mutations, tumor heterogeneity, and aspects of drug treatment. Chemotherapeutic drug resistance is also a common issue and can lead to ineffective treatment and patient death. Here we have profiled the cell killing effects of thousands of compounds to characterize the responses in three gynecological cancers, identify cancer-selective compounds, and understand the diversity of responses to these compounds from pan-cancer suppressors to single cell line selective compounds. In this assay, we screened a 7,914 compound drug library that included approved drug and bioactive compounds in six ovarian, three cervical, and […] placental cancer cell lines using the ATPlite assay for cell viability. […] The cervical cancer cell lines included HeLa, Ca Ski, and C-33 A. The placental cancer cell lines included JEG-3. HEK 293T cells were used as the control cell line to determine the selectivity index. ATPlite is a luminescence based assay reliant on the conversion of a luciferase substrate to light in the presence of ATP. As a cytotoxic compound will suppress growth and decrease the number of cells, the concentration of ATP will decrease, and less light signal will be detected in the well.
# Assay Protocol Summary: 1,000 cells in 4 uL of media were dispensed into white, solid bottom 1536-well plates using a Multidrop Combi (Thermo Scientific). The Assay plates were incubated for 16 hours at 37 C with 5% CO2 in assay plates, followed by the addition of 23 nL of DMSO or drug dissolved in DMSO. Each compound was assayed in five concentrations (0.092, 0.46, 2.3, 11.5, and 57.5 uM), using the automated Wako 1536 Pin Tool workstation and incubated at 37 C with 5% CO2 48 hours. 4 uL of ATPlite, the ATP monitoring reagent, was then added to the each well of the assay plates using the Multidrop Combi reagent dispenser followed by incubation for 15 minutes at room temperature. The resulting luminescence was measured using the ViewLux plate reader.
# Potency means the concentration at half of the fitted maximal effect; tags describe the fitted curve by direction and shape.
row,SMILES,Potency
1,Cc1cccc(C)c1NC(=O)CN1CCN(CCCC(c2ccc(F)cc2)c2ccc(F)cc2)CC1,"inconclusive: 39.8 µM [cytotoxic, single point]"
2,Oc1c(Cl)cc(Cl)c2cccnc12,"inconclusive: 22.4 µM [cytotoxic, single point]"
3,CCCCCCCCCCCCCCCC[n+]1ccccc1,active: 31.6 µM
4,CCCCCN=C(N)N/N=C/c1c[nH]c2ccc(OC)cc12,"inconclusive: 28.2 µM [cytotoxic, single point]"
5,Fc1cc(-c2cccc3ncc(-c4cnn(C5CCNCC5)c4)nc23)cc(F)c1CN1CCOCC1,"inconclusive: 1.12 µM [cytotoxic, partial curve, poor fit]"
6,O=C1[C@H]2CCCC[C@H]2C(=O)N1CCCCN1CCN(c2nsc3ccccc23)CC1,"inconclusive: 39.8 µM [cytotoxic, single point]"
7,CCCCN1C[C@H](O)[C@@H](O)[C@H](O)[C@H]1CO,inactive
8,COc1cc2c(Oc3ccc4[nH]c(C)cc4c3F)ncnc2cc1OCCCN1CCCC1,"inconclusive: 12.6 µM [cytotoxic, partial curve]"
9,Oc1c(Cl)cc(Cl)c(Cl)c1Cc1c(O)c(Cl)cc(Cl)c1Cl,active: 10 µM
10,COc1cc2c(Nc3ccc(Br)cc3F)ncnc2cc1OCC1CCN(C)CC1,"inconclusive: 20 µM [cytotoxic, partial curve, poor fit]"
11,CNC(=O)c1ccccc1Nc1nc(Nc2ccc(N3CCOCC3)cc2OC)ncc1Cl,active: 1 µM
12,CC(C)(C)CC(C)(C)c1ccc(O)c(Cc2ccc(Cl)cc2Cl)c1,inactive
13,CCN(CC)CCNC(=O)c1c(C)[nH]c(/C=C2\C(=O)Nc3ccc(F)cc32)c1C,active: 10 µM
14,CCC(C)(C)C(=O)O[C@H]1C[C@@H](C)C=C2C=C[C@H](C)[C@H](CC[C@@H]3C[C@@H](O)CC(=O)O3)[C@H]21,"inconclusive: 35.5 µM [cytotoxic, single point]"
15,Cc1cc(N)c2cc(NC(=O)Nc3ccc4nc(C)cc(N)c4c3)ccc2n1,"inconclusive: 39.8 µM [cytotoxic, single point]"
16,COc1ccc(CCC(=O)Nc2nc3ccc(Cl)cc3s2)cc1OC,inactive
17,COc1ccc(CN2CCN(C(c3ccc(F)cc3)c3ccc(F)cc3)CC2)c(OC)c1OC,"inconclusive: 31.6 µM [cytotoxic, single point]"
18,CC[C@]1(O)C[C@@H]2CN(CCc3c([nH]c4ccccc34)[C@@](C(=O)OC)(c3cc4c(cc3OC)N(C)[C@H]3[C@@](O)(C(=O)OC)[C@H](OC(C)=O)[C@]5(CC)C=CCN6CC[C@]43[C@@H]65)C2)C1,active: 11.2 µM and active: 4.47 µM and active: 7.94 µM
19,COc1cccc2c1C(=O)c1c(O)c3c(c(O)c1C2=O)C[C@@](O)(C(=O)CO)C[C@@H]3O[C@H]1C[C@H](N)[C@H](O)[C@H](C)O1,active: 4.47 µM
20,CN(C)CCCN1c2ccccc2Sc2ccc(Cl)cc21,"inconclusive: 25.1 µM [cytotoxic, single point]"

row,SMILES,Potency
1,COCc1c(C(C)C)nc(C(C)C)c(/C=C/[C@@H](O)C[C@@H](O)CC(=O)O)c1-c1ccc(F)cc1,active: 1.78 µM
2,CC(=O)[C@H]1CC[C@H]2[C@@H]3C[C@H](C)C4=CC(=O)CC[C@]4(C)[C@H]3[C@@H](O)C[C@]12C,inactive
3,C[C@H]1O[C@@H](O[C@H]2CC[C@@]3(C)[C@H](CC[C@@H]4[C@@H]3C[C@@H](O)[C@]3(C)[C@@H](C5=CC(=O)OC5)CC[C@]43O)C2)C[C@H](O)[C@@H]1O[C@H]1C[C@H](O)[C@H](O[C@H]2C[C@H](O)[C@H](O[C@@H]3O[C@H](CO)[C@@H](O)[C@H](O)[C@H]3O)[C@@H](C)O2)[C@@H](C)O1,active: 1.58 µM
4,COCC(=O)O[C@]1(CCN(C)CCCc2nc3ccccc3[nH]2)CCc2cc(F)ccc2[C@@H]1C(C)C,active: 22.4 µM
5,CSc1ccc2c(c1)N(CCC1CCCCN1C)c1ccccc1S2 (stereo not given),"inconclusive: 35.5 µM [cytotoxic, single point]"
6,CC1(CN2CCC(n3c(=O)[nH]c4ccccc43)CC2)OCc2ccccc2-n2cccc21 (stereo not given),"inconclusive: 25.1 µM [cytotoxic, single point]"
7,CN(Cc1cnc2nc(N)nc(N)c2n1)c1ccc(C(=O)N[C@@H](CCC(=O)O)C(=O)O)cc1,inconclusive: 0.1 µM
8,O=C1NCN(c2ccccc2)C12CCN(CCCC(c1ccc(F)cc1)c1ccc(F)cc1)CC2,active: 20 µM
9,Oc1c(I)cc(Cl)c2cccnc12,"inconclusive: 39.8 µM [cytotoxic, single point]"
10,N=C(N)c1ccc(OCCCCCOc2ccc(C(=N)N)cc2)cc1,"inconclusive: 2.24 µM [cytotoxic, full curve]"
11,Oc1cc(-c2nc(-c3ccccc3)[nH]c2-c2ccncc2)ccc1Cl,"inconclusive: 39.8 µM [cytotoxic, single point]"
12,O[C@@H](c1cc(C(F)(F)F)nc2c(C(F)(F)F)cccc12)[C@H]1CCCCN1,"inconclusive: 39.8 µM [cytotoxic, single point]"
13,CCCCCCCCCCCCCCCC[N+](C)(C)Cc1ccccc1,active: 25.1 µM
14,C[n+]1c2cc(N)ccc2cc2ccc(N)cc21 (tested in a mixture with another compound),"inconclusive: 35.5 µM [cytotoxic, single point]"
15,OCCN1CCN(CCCN2c3ccccc3Sc3ccc(Cl)cc32)CC1,active: 15.8 µM
16,O=C(Nc1ncc([N+](=O)[O-])s1)c1cccs1,active: 20 µM
17,CCN(CC)C(=O)/C(C#N)=C/c1cc(O)c(O)c([N+](=O)[O-])c1,"inconclusive: 7.08 µM [rising, single point]"
18,C[C@H]1O[C@@H](O[C@H]2[C@@H](O)C[C@H](O[C@H]3[C@@H](O)C[C@H](O[C@H]4CC[C@@]5(C)[C@H](CC[C@@H]6[C@@H]5C[C@@H](O)[C@]5(C)[C@@H](C7=CC(=O)OC7)CC[C@]65O)C4)O[C@@H]3C)O[C@@H]2C)C[C@H](O)[C@@H]1O,active: 0.631 µM
19,CN1CCN(CCCN2c3ccccc3Sc3ccc(S(=O)(=O)N(C)C)cc32)CC1,"inconclusive: 39.8 µM [cytotoxic, single point]"
20,Nc1ccc2cc3ccc(N)cc3nc2c1,active: 28.2 µM
